# Laboratory results reported in the supplement of paper PMC3334620.
# The full ranking holds about 33,000 sequences; the median of “E-score (-0.5 to 0.5)” is about -0.04, and the highest 2% start at about 0.36. The list shows a part of the results.
# Target: T1, Hmlalpha2 (UniProt P0CY09)
# T1 sequence: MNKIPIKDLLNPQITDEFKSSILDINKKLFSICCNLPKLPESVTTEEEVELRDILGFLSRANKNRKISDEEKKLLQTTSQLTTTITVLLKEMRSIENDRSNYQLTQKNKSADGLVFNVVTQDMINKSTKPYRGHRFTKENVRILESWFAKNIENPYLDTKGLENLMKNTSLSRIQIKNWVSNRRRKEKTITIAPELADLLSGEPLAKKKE
# Test: PBM E-score (8-mer binding enrichment) (E-score (-0.5 to 0.5)); higher = stronger / more preferred TF binding; most listed sequences are background and not binding sites
# Conditions: protein concentration: 200 nM; construct: GST-full length
# Outline: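 Yeast transcription factors carrying a GST tag, as full-length proteins or DNA-binding domains, were produced by PURExpress in vitro transcription/translation. About 100-200 nM protein was applied to universal all-10-mer Agilent arrays, double-stranded by primer extension on fresh or once-stripped slides. Bound protein was detected with fluorescent anti-GST, and scans were normalised with masliner. The Universal PBM Analysis Suite gave each ungapped eight-base word, pooled with its reverse complement, an E-score, a modified Wilcoxon-Mann-Whitney statistic.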
row,Sequence,PBM E-score
1,AGGTGCCA,-0.19
2,CTTTCTCA,0.17
3,GAAAAAAC,0.0722
4,ATAATGAT,0.116
5,GCGGTAGC,-0.135
6,ATACGGTA,0.00709
7,ATACCACA,0.12
8,CACCTGGC,-0.165
9,GAGTAGGC,-0.278
10,CTTCGTTC,-0.212
11,CGTGTTCC,0.2
12,CGAGACCC,-0.0926
13,GCGTCTCC,-0.033
14,GAGACGAA,-0.115
15,ATGTGATC,0.228
16,CGTATAAA,0.335
17,GCCTATCA,-0.095
18,ATATAGGA,0.0657
19,ATCACTTG,-0.038
20,GCGGGGGA,-0.234
21,GGTCGCAA,-0.0889
22,CCATCACC,-0.147

row,Sequence,PBM E-score
1,ACCGTGTC,0.264
2,CCAAGGCA,-0.207
3,GACCCAAC,-0.188
4,ACACTTCC,-0.111
5,AATGTCGC,0.0679
6,CTCCGGCA,-0.175
7,GGGTCGAC,-0.136
8,CAGCGTAC,-0.128
9,CTCCTTTC,-0.28
10,AAGCTTTA,0.154
11,ACTGTAGA,0.0789
12,CGGGGTAC,-0.19
13,CAGGTCGC,-0.17
14,ATTTCTCA,0.0292
15,TCAAATAA,0.0782
16,AGGGTATA,0.0259
17,ATGGGTTC,-0.196
18,GACAGATC,0.0561
19,ACAAAACC,0.234
20,AACTCCCT,-0.0726
21,CATTTATC,0.0223
22,ACCTCGGG,-0.136

row,Sequence,PBM E-score
1,GAGGGTAA,-0.149
2,ACGATTCT,0.0326
3,GTTTTATA,0.144
4,ACTCAATG,0.174
5,ACTCCGAG,-0.0518
6,CTGCTCTC,-0.0476
7,GCATCTAC,0.141
8,GACGACCC,-0.145
9,CGCCGTAC,0.127
10,CAGCTTTC,-0.103
11,GCGGGGCA,-0.187
12,AACAGAAG,-0.131
13,GACTCAGC,-0.124
14,ACTCAGTA,0.0821
15,CAACGCCG,0.0576
16,CCACAAGC,-0.211
17,AAGGCACC,-0.0779
18,CTACTCAA,0.216
19,ACGTGTCA,0.392
20,TAAGGCCA,0.0046
21,GCGGTGAC,-0.157
22,GCGATTGA,-0.0743

row,Sequence,PBM E-score
1,CTACGCGC,0.302
2,CGAGCAAG,-0.145
3,ACAGTTCT,-0.0804
4,TCTGCGAA,-0.00695
5,ACACGTTG,0.35
6,ATGCCCCG,-0.315
7,AGAAACGA,0.00868
8,ACATCCCC,0.0184
9,CCCCCAAA,-0.126
10,TACCGCAA,0.101
11,CCTCTGAG,-0.305
12,ACGGTGAG,-0.129
13,CATCCTGA,0.0602
14,CCATGGTA,0.00138
15,GAGATCGC,-0.0829
16,GGCATAAA,-0.0898
17,CCCAGTAG,-0.0854
18,AAAGACAG,0.0979
19,GTAGGAGA,-0.184
20,AGAGGGCG,-0.0779
